In patent US20180155451A1:

Experiments:
each FcγR = assay: SPR (Biacore), relative binding
FcγR other than FcγRIa = assay: SPR (Biacore), relative binding
[1] = molecular target: FcγRIIIa extracellular domain with C-terminal His tag (human) (UniProt P08637); assay: SPR (Biacore), captured antibody, FcγR as analyte; relative to GpH7-A5/GpH7-B3/GpL16-k0 = 100
[2] = molecular target: FcγRIIb extracellular domain with C-terminal His tag (human) (UniProt P31994); assay: as above
Chain of UniProt P31994 (P31994 43-217): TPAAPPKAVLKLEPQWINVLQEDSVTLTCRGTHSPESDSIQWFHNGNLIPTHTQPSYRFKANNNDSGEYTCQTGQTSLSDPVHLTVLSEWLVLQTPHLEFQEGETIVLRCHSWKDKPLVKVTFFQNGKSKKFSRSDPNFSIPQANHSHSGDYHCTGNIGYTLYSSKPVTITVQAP

Chain of UniProt P08637 (P08637 17-208): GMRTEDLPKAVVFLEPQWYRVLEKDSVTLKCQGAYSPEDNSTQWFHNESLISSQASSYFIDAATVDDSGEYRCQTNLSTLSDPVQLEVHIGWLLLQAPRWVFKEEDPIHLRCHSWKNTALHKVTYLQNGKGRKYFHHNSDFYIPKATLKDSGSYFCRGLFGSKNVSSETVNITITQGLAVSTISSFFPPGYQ

binding activity relative to GpH7-A5/GpH7-B3/GpL16-k0 (fraction of GpH7-A5/GpH7-B3/GpL16-k0) (each FcγR) | percent of the binding activity of GpH7-A5/GpH7-B3/GpL16-k0 (FcγR other than FcγRIa) | Binder | other results
0.2 and 0.25 | – | GpH7-A5/GpH7-B12/GpL16-k0 (antibody, human IgG1, kappa) heavy 1: QVQLVQSGAEVKKPGASVTVSCKASGYTFTDYEMHWIRQPPGEGLEWIGAIDPKTGDTAYSESFQDRVTLTADKSTSTAYMELSSLTSEDTAVYYCTRFYSYTYWGQGTLVTVSS[no letters for human IgG1 constant region with D356K H435R (EU numbers)] heavy 2: QVQLVQSGAEVKKPGASVTVSCKASGYTFTDYEMHWIRQPPGEGLEWIGAIDPKTGDTAYSESFQDRVTLTADKSTSTAYMELSSLTSEDTAVYYCTRFYSYTYWGQGTLVTVSS[no letters for human IgG1 constant region with P329R K439E (EU numbers)] light: DIVMTQSPLSLPVTPGEPASISCQASESLVHSNRNTYLHWYLQKPGQSPQLLIYKVSNRFSGVPDRFSGSGSGTDFTLKISRVEAEDVGVYYCSQNTHVPPTFGQGTKVEIERTVAAPSVFIFPPSDEQLKSGTASVVCLLNNFYPREAKVQWKVDNALQSGNSQESVTEQDSKDSTYSLSSTLTLSKADYEKHKVYACEVTHQGLSSPVTKSFNRGEC | –
– | > 50% | GpH7-A5/GpH7-B14/GpL16-k0 (antibody, human IgG1, kappa) heavy 1: QVQLVQSGAEVKKPGASVTVSCKASGYTFTDYEMHWIRQPPGEGLEWIGAIDPKTGDTAYSESFQDRVTLTADKSTSTAYMELSSLTSEDTAVYYCTRFYSYTYWGQGTLVTVSS[no letters for human IgG1 constant region with D356K H435R (EU numbers)] heavy 2: QVQLVQSGAEVKKPGASVTVSCKASGYTFTDYEMHWIRQPPGEGLEWIGAIDPKTGDTAYSESFQDRVTLTADKSTSTAYMELSSLTSEDTAVYYCTRFYSYTYWGQGTLVTVSS[no letters for human IgG1 constant region with P329D K439E (EU numbers)] light: DIVMTQSPLSLPVTPGEPASISCQASESLVHSNRNTYLHWYLQKPGQSPQLLIYKVSNRFSGVPDRFSGSGSGTDFTLKISRVEAEDVGVYYCSQNTHVPPTFGQGTKVEIERTVAAPSVFIFPPSDEQLKSGTASVVCLLNNFYPREAKVQWKVDNALQSGNSQESVTEQDSKDSTYSLSSTLTLSKADYEKHKVYACEVTHQGLSSPVTKSFNRGEC | –
– | > 50% | GpH7-A5/GpH7-B15/GpL16-k0 (antibody, human IgG1, kappa) heavy 1: QVQLVQSGAEVKKPGASVTVSCKASGYTFTDYEMHWIRQPPGEGLEWIGAIDPKTGDTAYSESFQDRVTLTADKSTSTAYMELSSLTSEDTAVYYCTRFYSYTYWGQGTLVTVSS[no letters for human IgG1 constant region with D356K H435R (EU numbers)] heavy 2: QVQLVQSGAEVKKPGASVTVSCKASGYTFTDYEMHWIRQPPGEGLEWIGAIDPKTGDTAYSESFQDRVTLTADKSTSTAYMELSSLTSEDTAVYYCTRFYSYTYWGQGTLVTVSS[no letters for human IgG1 constant region with P329E K439E (EU numbers)] light: DIVMTQSPLSLPVTPGEPASISCQASESLVHSNRNTYLHWYLQKPGQSPQLLIYKVSNRFSGVPDRFSGSGSGTDFTLKISRVEAEDVGVYYCSQNTHVPPTFGQGTKVEIERTVAAPSVFIFPPSDEQLKSGTASVVCLLNNFYPREAKVQWKVDNALQSGNSQESVTEQDSKDSTYSLSSTLTLSKADYEKHKVYACEVTHQGLSSPVTKSFNRGEC | –
– | – | GpH7-A5/GpH7-B3 variant G237_12R/GpL16-k0 (heterodimerized antibody, He Ab) (antibody, human IgG1, kappa) heavy 1: QVQLVQSGAEVKKPGASVTVSCKASGYTFTDYEMHWIRQPPGEGLEWIGAIDPKTGDTAYSESFQDRVTLTADKSTSTAYMELSSLTSEDTAVYYCTRFYSYTYWGQGTLVTVSS[no letters for human IgG1 constant region with D356K H435R (EU numbers)] heavy 2: QVQLVQSGAEVKKPGASVTVSCKASGYTFTDYEMHWIRQPPGEGLEWIGAIDPKTGDTAYSESFQDRVTLTADKSTSTAYMELSSLTSEDTAVYYCTRFYSYTYWGQGTLVTVSS[no letters for human IgG1 constant region with G237R K439E (EU numbers)] light: DIVMTQSPLSLPVTPGEPASISCQASESLVHSNRNTYLHWYLQKPGQSPQLLIYKVSNRFSGVPDRFSGSGSGTDFTLKISRVEAEDVGVYYCSQNTHVPPTFGQGTKVEIERTVAAPSVFIFPPSDEQLKSGTASVVCLLNNFYPREAKVQWKVDNALQSGNSQESVTEQDSKDSTYSLSSTLTLSKADYEKHKVYACEVTHQGLSSPVTKSFNRGEC | He/Con 3a (IIIa binding) (% of HeCon Ab) [1]: 7.4; He/Con 2b (IIb binding) (% of HeCon Ab) [2]: 9.8
0.2 and 0.25 | – | GpH7-A5/GpH7-B13/GpL16-k0 (antibody, human IgG1, kappa) heavy 1: QVQLVQSGAEVKKPGASVTVSCKASGYTFTDYEMHWIRQPPGEGLEWIGAIDPKTGDTAYSESFQDRVTLTADKSTSTAYMELSSLTSEDTAVYYCTRFYSYTYWGQGTLVTVSS[no letters for human IgG1 constant region with D356K H435R (EU numbers)] heavy 2: QVQLVQSGAEVKKPGASVTVSCKASGYTFTDYEMHWIRQPPGEGLEWIGAIDPKTGDTAYSESFQDRVTLTADKSTSTAYMELSSLTSEDTAVYYCTRFYSYTYWGQGTLVTVSS[no letters for human IgG1 constant region with P329K K439E (EU numbers)] light: DIVMTQSPLSLPVTPGEPASISCQASESLVHSNRNTYLHWYLQKPGQSPQLLIYKVSNRFSGVPDRFSGSGSGTDFTLKISRVEAEDVGVYYCSQNTHVPPTFGQGTKVEIERTVAAPSVFIFPPSDEQLKSGTASVVCLLNNFYPREAKVQWKVDNALQSGNSQESVTEQDSKDSTYSLSSTLTLSKADYEKHKVYACEVTHQGLSSPVTKSFNRGEC | –

Values joined by “and” are separate entries in the source; they are usually repeats but may differ in a detail not shown here. Identical values can stand only once.
